Test results taken from the supplement of paper PMC3334620.
The full ranking holds about 33,000 sequences; the median of “E-score (-0.5 to 0.5)” is about -0.036, and the highest 2% start at about 0.37. Some of the results follow.

What follows are sequences tested against T1, Yer064c (UniProt P40041) (assay: PBM E-score (8-mer binding enrichment) (E-score (-0.5 to 0.5)); higher = stronger / more preferred TF binding; most listed sequences are background and not binding sites). Details: protein concentration: 200 nM; construct: GST-full length.
T1 sequence: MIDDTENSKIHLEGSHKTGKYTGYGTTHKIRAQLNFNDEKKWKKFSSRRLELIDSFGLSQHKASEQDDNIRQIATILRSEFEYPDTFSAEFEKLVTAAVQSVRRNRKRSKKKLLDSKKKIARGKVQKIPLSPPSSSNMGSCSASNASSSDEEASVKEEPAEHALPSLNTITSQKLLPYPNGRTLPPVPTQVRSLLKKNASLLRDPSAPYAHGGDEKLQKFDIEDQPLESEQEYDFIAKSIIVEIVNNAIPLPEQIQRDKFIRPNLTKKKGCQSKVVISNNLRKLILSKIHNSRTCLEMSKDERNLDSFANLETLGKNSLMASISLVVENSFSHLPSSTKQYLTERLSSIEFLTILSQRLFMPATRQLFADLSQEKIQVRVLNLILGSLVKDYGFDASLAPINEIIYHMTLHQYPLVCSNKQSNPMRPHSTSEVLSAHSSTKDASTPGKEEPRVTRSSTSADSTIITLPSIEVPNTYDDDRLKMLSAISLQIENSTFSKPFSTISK
How it was run: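 Yeast transcription factors, full-length or as DNA-binding domains, were expressed with a GST tag using PURExpress in vitro transcription/translation. At about 100-200 nM they were applied to universal all-10-mer Agilent arrays, double-stranded by primer extension on fresh or once-stripped slides. Fluorescent anti-GST detected bound protein, and masliner normalised the scans. E-scores for ungapped eight-base words, pooled with reverse complements, came from the Universal PBM Analysis Suite.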

Sequence | PBM E-score
ACTTCCAG | 0.0792
AGTAGCCG | -0.177
AGAACGTA | 0.00154
AATTAGCG | 0.0109
CTAGCTCC | -0.325
AGGTCCGA | -0.0197
GAAGAGGA | -0.18
ACTCTTCT | 0.23
AATGTCTC | 0.274
ATTCTAAG | 0.23
CCCTCCCC | -0.115
AACAATGA | 0.191
CCACCCCG | -0.0984
CCTCAAAC | -0.0244
AGACGACA | -0.061
ATATCTGA | 0.117
ACCATAAG | -0.0452
GAGATTGA | 0.158
ATGCCGCA | -0.107
ACCTGGAA | -0.0885
CATTCCCA | -0.16
CAGGGATA | -0.214
TTCACAAA | 0.0238
GACCAAGA | -0.0826
CAGACGTA | -0.117

Sequence | PBM E-score
CCCAGCTA | -0.0347
GCTCATCC | -0.0652
AAACCGCC | 0.152
ACGCCCCC | -0.35
CGCACGTA | -0.124
TTACCTAA | -0.0168
GGGCGTAC | -0.246
GAATATTA | 0.0629
CCAATGCG | -0.129
CTGCGGTA | 0.154
ACCATTTA | 0.0913
GTTGAAGA | 0.204
CCACAAGG | -0.25
GCGGATCC | -0.228
AATTCATG | 0.0244
CCACTAGC | -0.139
CACCGATC | 0.0347
CAATGCCC | -0.271
ACTCACAA | 0.395
AGGTGAAA | 0.0659
GAACGCGC | -0.188
AGAGTGGA | -0.107
GCGACGAC | 0.06
GAGACCTA | 0.044
GCCGTTCA | -0.159

Sequence | PBM E-score
CCATAGAG | -0.0229
ACCACAAT | 0.186
ATGCCGAC | 0.167
GCCGCCGC | -0.142
CTACTAAC | 0.0814
ATGGGGAC | -0.14
ACCTCTCA | -0.116
CAAAGACG | -0.156
CATGATTA | 0.453
AACGCCAC | -0.241
AAAGCAGC | -0.134
CTCATCGA | 0.173
ACTACCCG | 0.153
CAAGACAG | -0.164
AGACGGTG | -0.288
CAGCAATG | -0.0128
CTACCTTC | -0.105
ACGAGTTC | 0.114
CCCAGCGA | -0.0081
ACACAGAT | -0.0473
GGCCAACA | -0.0641
CAATCGAC | 0.0905
ACGAGAGT | 0.151
AGGTTTCC | -0.0971
GTTATTTA | -0.027

Sequence | PBM E-score
AGCTTAGC | -0.144
AAAGCTGA | 0.0846
ATGAATAG | 0.182
CTCCTCCA | -0.0193
AGAGGAAC | -0.189
CCCTTAGG | -0.17
GTGAAAAA | 0.00448
AGCGTTAG | -0.0809
ATGAACAG | -0.0393
ACTGACAG | -0.0319
CAGGCGTC | -0.249
CCATAATC | 0.239
AGGCTGAC | 0.327
AAGCTAGC | -0.173
ATGCCGTG | 0.0709
CAGAGAAG | 0.0121
GGAATAGA | 0.101
AAGGGTAT | -0.142
GAAGTTGA | 0.0724
CGACCGAA | -0.164
AGATCTAA | -0.0235
AGAGTGCG | -0.148
GCCCGTAA | -0.0447
CGCCACTA | -0.113
CGGAGACG | -0.0897

Sequence | PBM E-score
CGAACTGA | -0.0335
TCCACAGA | 0.153
GAACTCCA | 0.0732
CGCCTAAG | -0.00592
ATCGTGCG | 0.0944
CCAAGTCG | 0.0788
GCAGATAA | 0.164
AATTATGA | 0.248
AGCTTACG | -0.0515
CCCACCTC | -0.257
GAGACAGC | 0.136
GCCGCTGA | 0.0647
AATGCTGA | -0.0228
GTATAAGA | 0.0331
GACCCTCA | -0.065
ATATACGC | -0.0842
CGAAGTCC | 0.0182
TGCCCGCA | -0.0949
ATTCTCTG | 0.0149
CGCCTCCG | -0.123
AGTTATCA | -0.00043
GAGCTATA | -0.192
AGAACTAT | 0.0551
TGTATCAA | 0.187
ACCCGAGC | -0.191

Sequence | PBM E-score
GCCAGACA | -0.21
AGTGCTGG | -0.151
CTACTGAC | 0.177
ATACCGGG | -0.0398
GGTGTCAC | 0.0497
ACAAACTG | -0.157
AGGCGAGG | -0.241
CGGGAAGA | 0.0454
ATGTTATC | 0.051
AAAAACAG | 0.064
AGGCAAAT | -0.185
GACTTGCA | 0.241
AGCAATAA | 0.042
TCGACCCA | 0.0521
ATGCATGC | -0.0443
AACGGAAC | -0.134
AGATCGCT | -0.19
ATTCAAAT | 0.214
CTCGCTAA | 0.111
ATTACGGG | 0.0135
AGTTGTAT | -0.078
GCAAGCCA | -0.00578
GAATATGC | -0.142
TAAGATCA | 0.21
ATTGGCAC | 0.0418

Sequence | PBM E-score
GATACGGA | 0.046
CTACGGAC | -0.15
GAGCGTTA | -0.0636
AGACACCA | 0.153
AGAGTACA | 0.171
CCTGTTGA | 0.1
ACCCCGCA | -0.254
ACCTGCTC | -0.261
AGCTGGCG | -0.154
CCCCACTC | -0.156
TAGAGTGA | 0.171
CATGTAAC | -0.097
AGACTAAT | 0.389
ACCAGATA | 0.0252
CACCAATA | -0.0657
GAGCCGTA | 0.22
GCAATTCA | -0.101
CGCACGTC | -0.277
CATTTGGG | -0.193
AAGTCTAT | 0.0155
CAAAGGAA | -0.117
AGGTATCG | -0.0675
